Assay results from patent publication US11104968B2, “Site-specific conjugation of linker drugs to antibodies and resulting ADCS” (Byondis B.V., priority 2014, dated 2021).

B1: ADC-HC41 (SYD1091): engineered cysteine anti-PSMA (VH S41C) antibody conjugated to vc-seco-DUBA (conjugate)
heavy: EVQLVQSGAEVKKPGASVKISCKTSGYTFTEYTIHWVKQACGKGLEWIGNINPNNGGTTYNQKFEDRATLTVDKSTSTAYMELSSLRSEDTAVYYCAAGWNFDYWGQGTTVTVSS[human IgG1 constant region not shown]
light: DIVMTQSPSSLSASVGDRVTITCKASQDVGTAVDWYQQKPGKAPKLLIYWASTRHTGVPDRFTGSGSGTDFTLTISSLQPEDFADYFCQQYNSYPLTFGGGTKLEIKRTVAAPSVFIFPPSDEQLKSGTASVVCLLNNFYPREAKVQWKVDNALQSGNSQESVTEQDSKDSTYSLSSTLTLSKADYEKHKVYACEVTHQGLSSPVTKSFNRGEC
B2: H8-HC41: engineered cysteine anti-5T4 (VH P41C) H8 antibody conjugated to vc-seco-DUBA (conjugate)
heavy: QVQLVQSGAEVKKPGASVKVSCKASGYSFTGYYMHWVKQSCGQGLEWIGRINPNNGVTLYNQKFKDRVTMTRDTSISTAYMELSRLRSDDTAVYYCARSTMITNYVMDYWGQGTLVTVSS[human IgG1 constant region not shown]
light: DIVMTQSPDSLAVSLGERATINCKASQSVSNDVAWYQQKPGQSPKLLISYTSSRYAGVPDRFSGSGSGTDFTLTISSLQAEDVAVYFCQQDYNSPPTFGGGTKLEIKRTVAAPSVFIFPPSDEQLKSGTASVVCLLNNFYPREAKVQWKVDNALQSGNSQESVTEQDSKDSTYSLSSTLTLSKADYEKHKVYACEVTHQGLSSPVTKSFNRGEC
B3: H8-HC40: anti-5T4 H8 antibody HC S40C conjugated to vc-seco-DUBA (conjugate)
heavy: B2 heavy with S40C, C41P
light: B2 light

What was measured:
[1] = Analytical HIC, relative hydrophobicity of ADCs; assay type: physicochemical; details: vc-seco-DUBA ADCs; (RTDAR2-RTDAR0)/(RTDAR2,wt-ADC-RTDAR0,wt-ADC); double mutants are DAR4 species (RT wt DAR4 = 12.2)
[2] = system: LNCaP C4-2 prostate cancer xenograft; test: LNCaP C4-2 prostate cancer xenograft model; assay type: in vivo, male CB17-SCID mice
[3] = High molecular weight species (aggregates) of ADCs; assay type: physicochemical; details: vc-seco-DUBA ADCs, amount of aggregates formed
[4] = system: PSMA-positive cell line LNCaP-C4.2; test: In vitro cytotoxicity, PSMA-positive cell line; assay type: cell-based, human; details: anti-PSMA-vc-seco-DUBA ADCs, at the highest concentration tested (~100 nM)
[5] = system: PSMA-negative DU-145 cells; test: Enzymatic cleavage by cathepsin B, cytotoxicity of released drug on DU-145; assay type: cell-based; details: 4 hours pre-incubation with cathepsin B
LNCaP-C4.2 = test: Enzymatic cleavage by cathepsin B, cytotoxicity of released drug on LNCaP-C4.2 as 5T4-negative line; assay type: cell-based, human; details: 4 hours pre-incubation with cathepsin B, LNCaP-C4.2 used as the 5T4-negative cell line
[6] = system: PA-1 ovarian cancer xenograft; test: PA-1 ovarian cancer xenograft model; assay type: in vivo, female Balb/c nude mice; details: single i.v. injection 3 mg/kg, FIG. 4A
[7] = system: 5T4-negative SK-MEL-30 cells; test: Enzymatic cleavage by cathepsin B, cytotoxicity of released drug on SK-MEL-30; assay type: cell-based; details: 4 hours pre-incubation with cathepsin B
[8] = 6 days, CellTiter-Glo, read-out: IC50 (nM), free drug cleaved by cathepsin B

| Molecule | Relative hydrophobicity [1] | In vivo efficacy (tumour volume) ([2]; single i.v. injection 2 mg/kg, FIG. 2A) | In vivo efficacy (tumour volume) ([2]; single i.v. injection 10 mg/kg, FIG. 2B) | Effect on body weight (restoration after cachexia) ([2]; single i.v. injection 10 mg/kg, FIG. 3) | HMW (%) [3] | % efficacy [4] | % efficacy, free drug cleaved by cathepsin B [5] | IC50 [5, 8] | % efficacy, free drug cleaved by cathepsin B (LNCaP-C4.2) | IC50 (LNCaP-C4.2; read-out: IC50 (nM), free drug cleaved by cathepsin B) | In vivo efficacy (tumour volume) [6] | % efficacy, free drug cleaved by cathepsin B [7] | IC50 [7, 8] |
| --- | --- | --- | --- | --- | --- | --- | --- | --- | --- | --- | --- | --- | --- |
| B1 | 0.6 | significantly better than the comparator SYD1035 and is better than the native, non-engineered SYD998 | difference between the comparator SYD1035 and SYD1091 is even more pronounced | much faster restoration of the body weights | 1.4% | 78% | 59% | ~5 nM |  |  |  |  |  |
| B2 | 0.3 |  |  |  | 0.4% |  |  |  | 98% | 1.27 nM | clearly more active |  |  |
| B3 | 0.7 |  |  |  | 1.2% |  |  |  |  |  |  | 93% | 0.98 nM |

Where a chain is given by its changes, count along the chain named. Names may count otherwise.
